Molecules are shown by their SMILES. Some of the results follow. Shown are side measurements of this screen, not its main read-out; they come without a call. Compounds called inactive in the main read-out are mostly missing here.

The assay addresses Runt-related transcription factor 1 (Homo sapiens) + Core-binding factor subunit beta (Homo sapiens) (UniProt Q01196+Q13951). Briefly: inhibitors of RUNX1 Runt–CBFb-SMMHC binding, primary screen, biochemical, FRET, Cerulean-Runt, Venus-CBFb-SMMHC, uHTS (AID 1434).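 Further: 0% = DMSO wells and 100% = wells with excess untagged CBFb-SMMHC; inhibitors lower the FRET ratio by blocking Runt binding to CBFb-SMMHC.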 Particulars: Cerulean-Runt/Venus-CBFb-SMMHC FRET ratio 530/480, 1 h; retest duplicate average; at 20 µM; stronger effect = higher value.
Sequence of UniProt Q01196 (Q01196 whole entry, looked up): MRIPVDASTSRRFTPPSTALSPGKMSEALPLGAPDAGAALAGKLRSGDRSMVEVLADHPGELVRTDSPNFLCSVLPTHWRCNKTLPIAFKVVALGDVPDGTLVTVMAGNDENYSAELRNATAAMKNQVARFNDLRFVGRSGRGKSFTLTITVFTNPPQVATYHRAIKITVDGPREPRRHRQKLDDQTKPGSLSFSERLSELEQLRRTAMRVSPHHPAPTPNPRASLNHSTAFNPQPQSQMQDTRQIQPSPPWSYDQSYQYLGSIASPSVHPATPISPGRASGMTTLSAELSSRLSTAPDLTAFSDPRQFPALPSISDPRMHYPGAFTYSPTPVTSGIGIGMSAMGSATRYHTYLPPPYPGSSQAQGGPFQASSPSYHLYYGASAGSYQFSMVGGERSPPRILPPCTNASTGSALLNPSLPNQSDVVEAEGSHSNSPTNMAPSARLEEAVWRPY
Sequence of UniProt Q01196 (Q13951 whole entry, looked up): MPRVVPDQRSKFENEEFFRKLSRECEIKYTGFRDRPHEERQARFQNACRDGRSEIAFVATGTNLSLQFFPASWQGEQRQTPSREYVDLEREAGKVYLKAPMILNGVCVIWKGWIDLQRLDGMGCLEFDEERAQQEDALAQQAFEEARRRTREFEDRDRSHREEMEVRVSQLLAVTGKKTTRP
Regarding `CC(=O)Nc1ccc(S(=O)(=O)Nc2nc3ccccc3nc2Sc2nncn2C)cc1`, the inhibition turned out to be 102%. With `Cc1cc(N2CCN(C3CCCC3)CC2)n2c(nc3ccccc32)c1C#N` the figure was 51.1%; with `CCOC(=O)c1cc2c(=O)n3ccccc3nc2n(C(C)C)c1=NC(=O)c1c(-c2c(F)cccc2Cl)noc1C`, 111%; with `N#CC1=C(N)N2C(=C(C#N)C1c1ccc(Br)cc1)Nc1ccccc12` (centres undefined), 71.5%. Regarding `CCCc1cc(-n2ccnc2)n2c(nc3ccccc32)c1C#N`, the inhibition was found to be 104%. For the molecule `Nc1c(C(=O)OCC2CCCO2)c2nc3ccccc3nc2n1C1CCCC1` (centres undefined), the inhibition is 117%. Regarding `CN1C=CC2=C(C#N)C(N)C(C#N)(C#N)[C@H](c3ccccc3)[C@H]2C1` (some centres undefined), the inhibition amounted to 71.5%. As to `CN1CCN(c2nc(-c3ccccc3)c3cc(Cl)ccc3n2)CC1`, the inhibition came to 90.3%. For `Cc1ccc(/C=C2\Oc3c(ccc(O)c3CN3CCN(C)CC3)C2=O)cc1`, the inhibition turned out to be 70.6%. To `COc1cc(/C=C2\SC(c3ccccc3)=NC2=O)cc(Cl)c1O` belongs 60.5%; to `Cc1cccc(C)c1NC(=O)C1=C(O)c2sccc2N(C)S1(=O)=O`, 71.2%; to `Nc1c(C(=O)NCCN2CCOCC2)c2nc3ccccc3nc2n1CCc1ccccc1F`, 93.3%. Consider `CCN(CC)c1ccc(/C=N/NC(=O)c2cccc(S(=O)(=O)Nc3ccccc3OC)c2)c(O)c1`, for which the inhibition came out at 70.5%. As to `CC(=O)NNc1cc(N2CCOCC2)nc(N2CCOCC2)n1`, the inhibition came to 71.4%. Regarding `CCN(C)c1ccc(/C=N\n2nnnc2N)cc1`, the inhibition is 90.7%. As to `CCOCCCn1c(=N)c(C(=O)NCc2ccc3c(c2)OCO3)cc2c(=O)n3cccc(C)c3nc21`, the inhibition amounted to 120%. `CN1CCN(C2=CC3=CC(=C(C#N)C#N)CCC3CC2)CC1` (centres undefined): the inhibition amounted to 70.6%. To `Cc1cc(C)c2nc(N3CCCN(C(=O)c4ccco4)CC3)c(C#N)cc2c1` belongs 69%. To `N#Cc1c(N)n(C2CCCCC2)c2nc3ccccc3nc12` belongs 86.8%; to `CC(C)Cn1c(N)c(C(=O)NCCN2CCOCC2)c2nc3ccccc3nc21`, 106%; to `Clc1ccc(N2N=C(c3cccs3)CC2c2ccco2)cc1` (centres undefined), 68.2%.

Turning to `O=c1[nH]c(=O)c2nc(-c3ccc(Cl)cc3)cnc2[nH]1`, the inhibition was 70.6%. To `O=C(O)c1ccc(N/N=C/c2ccc(-c3cc(Cl)ccc3Cl)o2)cc1` belongs 70.6%; to `COC(=O)Cc1c(C)c2ccc(O)c(CN3CCCC(C)C3)c2oc1=O` (centres undefined), 174%; to `CCn1nc(NC(=O)Cc2ccc(OC)cc2)c2cc3cccc(C)c3nc21`, 94.9%. Turning to `CCN1C(=O)c2cccc3c(S(=O)(=O)NCc4cccnc4)ccc1c23`, the inhibition was 64%. For `CC(=O)N(C)/C=C1\Sc2ccccc2C1=O`, the inhibition is 54.4%.

`Cc1nc2nc(-c3ccc(Cl)cc3)cn2nc1C`: the inhibition is 72.9%.

Turning to `CC1(C)CC(=O)C2=C(C1)Nc1ccccc1NC2`, the inhibition was found to be 70.2%.

As for `Cc1ccc2nc3c(cc(C#N)c(=O)n3CC3CCCO3)c(=O)n2c1` (centres undefined), the inhibition is 72.9%. Consider `CCCc1cc(NCCCCO)n2c(nc3ccccc32)c1C#N`, for which the inhibition amounted to 55.6%. `OCCNc1c2ccccc2nc2ccccc12`: the inhibition was found to be 154%. With `CCN(CC)c1ccc(/C=N/NC(=O)c2ccc3nc[nH]c3c2)c(O)c1` the figure was 67%; with `COC(=O)C1=CN(C2CC2)C=C(C(=O)OC)C1c1ccc(C(=O)OC)cc1`, 142%; with `O=C(NNC(=O)C1[C@H]2CCCC[C@@H]12)c1ccc(=O)oc1` (some centres undefined), 104%.

Regarding `O=c1c2ccccc2n(CC(O)CN2CCCCC2)c2ccccc12` (centres undefined), the inhibition came out at 70.6%. As for `Cc1cccn2c(=O)c3cc(C(N)=S)c(=N)n(CCCOC(C)C)c3nc12`, the inhibition was determined as 72.9%. Consider `CCNc1ccc2c(Cl)cc(=O)oc2c1`, for which the inhibition was found to be 116%. For `CC(=O)N=c1c(C#N)cc2c(=O)n3ccccc3nc2n1Cc1ccccc1`, the inhibition came out at 150%. With `CCN1CCc2c(C#N)c(N3CCOCC3)nc(NCCO)c2C1` the figure was 72.9%; with `CCc1c(C)c(C#N)c2nc3ccccc3n2c1NCC1CCCO1` (centres undefined), 66.7%. Take `O=c1oc2c(CN3CCOCC3)c(O)ccc2c2c1CCCC2`: the inhibition was 85.4%. In the case of `CCN(CC)c1ccc(/C=C(\C#N)C(N)=O)cc1`, the inhibition was 67.2%. Turning to `Cc1ccc(C2NC(=O)c3c(sc4c3CCN(C)C4)N2)s1` (centres undefined), the inhibition turned out to be 147%. With `CCc1nc(SCC(=O)c2ccc3c(c2)OCCO3)c2ccccc2n1` the figure was 68.5%; with `COCCn1c(CCC(=O)O)ccc1-c1cccs1`, 76.3%; with `CN(C)Cc1c(O)ccc2c3c(c(=O)oc12)CCCCC3`, 139%. To `CC1=CC(c2ccccc2)n2nc(NS(=O)(=O)c3ccc(C)cc3)nc2N1` (centres undefined) belongs 86.7%. Turning to `c1ccc(-c2ccc(-c3nccc4ccccc34)[nH]2)cc1`, the inhibition worked out at 108%. `CCOC(=O)c1c(NC(=O)CSc2nnc(C)s2)sc2c1CCN(C)C2`: the inhibition came out at 164%. Consider `Cc1ccc2nc(NCCCN3CCOCC3)c(C=NCCCN3CCOCC3)c(=O)n2c1`, for which the inhibition is 114%. On to `CCOC(=O)CNS(=O)(=O)c1ccc2c3c(cccc13)C(=O)N2CC`, for which the inhibition stood at 63.7%. For `CCCCCCc1cc2cc(C(=O)OCC)c(=O)oc2cc1O`, the inhibition is 70.6%.

On to `Cc1ccc(C2C3=C(CCCC3=O)Nc3[nH]c(=S)[nH]c(=O)c32)cc1` (centres undefined), for which the inhibition amounted to 54.3%.

Regarding `COc1ccc(CCNc2c3ccccc3nc3ccccc23)cc1OC`, the inhibition was determined as 161%. As for `Nc1ccc2[nH]ncc2c1`, the inhibition came out at 58.2%. As for `Nc1c(C(=O)NCCN2CCOCC2)c2nc3ccccc3nc2n1-c1ccccc1`, the inhibition came to 114%. Consider `COc1cc([C@@H]2[C@H]3CN(C)CC=C3C(C#N)=C(N)C2(C#N)C#N)cc2c1OCO2`, for which the inhibition turned out to be 76.9%. Take `COc1ccc2nc(Nc3sc4c(c3C(N)=O)CCCC4)sc2c1`: the inhibition was found to be 76.9%. Regarding `CCCCCOC(=O)c1c(N)n(CCOC)c2nc3ccccc3nc12`, the inhibition amounted to 111%. Consider `COc1ccc2o/c(=N\O)c(C(=O)Nc3ccc(C)cc3)cc2c1`, for which the inhibition came out at 72.1%.

On to `N=c1c(C(=O)NCc2ccccc2)cc2c(=O)n3ccccc3nc2n1Cc1ccco1`, for which the inhibition is 72.9%.

Consider `COc1cccc(C2C(C#N)=C(N)Oc3cc(N)ccc32)c1OC` (centres undefined), for which the inhibition was found to be 111%. As for `COc1cc2cc(C(=O)N3CCN(Cc4ccc5c(c4)OCO5)CC3)c(=O)oc2cc1OC`, the inhibition worked out at 62.4%. To `COCCNC(=O)/C(C#N)=C/c1c(N2CC(C)OC(C)C2)nc2ccccn2c1=O` (centres undefined) belongs 71.5%; to `COc1ccc2cc(-c3cc(C(=O)OCC(=O)NC4CCS(=O)(=O)C4)c4ccccc4n3)ccc2c1` (centres undefined), 71.5%; to `CCOc1ccc(C2C(C(=O)OC)=CN(CCOC)C=C2C(=O)OC)cc1`, 165%. With `CCC(=O)Nc1c(S(=O)(=O)c2ccccc2)c2nc3ccccc3nc2n1C(C)c1ccccc1` (centres undefined) the figure was 89.9%; with `CCCCCCc1cc2cc(-c3nnc(-c4ccccc4OC)o3)c(=O)oc2cc1O`, 73.3%; with `C=CCn1c(=N)c(C(=O)OC)cc2c(=O)n3cccc(C)c3nc21`, 72.9%. Consider `CCCS(=O)(=O)c1c(S(=O)(=O)CCC)c2cc(-c3ccncc3)ccn2c1C(=O)OC`, for which the inhibition is 99.9%. For `CCC(=O)Oc1ccc2c(c1)O/C(=C\c1ccco1)C2=O`, the inhibition was 66.8%. For the molecule `CCOC(=O)c1c(/N=C/c2cc(C)ccc2O)sc2c1CCN(C)C2`, the inhibition came to 69.1%. As to `N#CC1=C(N)Oc2cc(N)ccc2C1c1ccc(F)cc1` (centres undefined), the inhibition worked out at 98.9%. As to `Cc1ccc(C(=O)CSc2ncnc3ccccc23)o1`, the inhibition is 103%. To `Cc1ccc(NC(=S)C2=C(O)c3sccc3N(C)S2(=O)=O)cc1` belongs 112%; to `O=C(O)C(=O)/C(=C\c1ccccc1)c1ccc2ccccc2n1`, 50.7%. Turning to `Cc1cccn2c(=O)c(/C=C(\C#N)C(N)=O)c(N3CCN(Cc4ccc5c(c4)OCO5)CC3)nc12`, the inhibition turned out to be 181%.

`CN1/C(=C\C(=O)c2ccco2)C(C)(C)c2ccccc21`: the inhibition was found to be 84.3%. Turning to `C/C(O)=c1/ccc2cccc3nc(C)nc1c23`, the inhibition stood at 12.9%. On to `N=c1c(C(=O)NCC2CCCO2)cc2c(=O)n3ccccc3nc2n1Cc1cccnc1` (centres undefined), for which the inhibition was 72.9%. To `CCN(CC)c1ccc2c(C)c(CO)c(=O)oc2c1` belongs 70.6%.

As to `CCOCCCNC(=S)NCCCNc1nc2ccc(C)cc2cc1C#N`, the inhibition was 163%.

In the case of `COc1cc(/C=C(\C#N)C(=O)NCc2cccs2)ccc1O`, the inhibition was determined as 52.4%. Take `COCCOC(=O)C(C#N)c1nc2ccccc2nc1N1CCN(Cc2ccccc2)CC1` (centres undefined): the inhibition was found to be 99.7%. To `CCCn1c(=NC(=O)c2c(-c3c(F)cccc3Cl)noc2C)c(C(=O)OCC)cc2c(=O)n3ccccc3nc21` belongs 89.5%; to `CCCNC(=O)c1c(N)n(-c2cc(OC)cc(OC)c2)c2nc3ccccc3nc12`, 95.1%. For `CC(C)S(=O)(=O)C1=NSC2=NC(=O)/C(=C\c3ccc(-c4ccccc4)o3)C(=N)N21`, the inhibition is 71.5%.

Regarding `Cc1ccc2nc(NCCC(=O)O)nc(-c3ccccc3)c2c1`, the inhibition was determined as 70.6%.

For the molecule `COC(=O)c1cc2c(=O)n3cccc(C)c3nc2n(Cc2cccnc2)c1=N`, the inhibition amounted to 72.9%. Consider `O=C(NCc1ccco1)c1cc2ccc(O)cc2oc1=O`, for which the inhibition worked out at 72.9%. On to `CCOC(=O)C1=CN(CC2CCCO2)C=C(C(=O)OCC)C1c1ccccc1C(F)(F)F` (centres undefined), for which the inhibition is 107%. To `COCCN1C=C(C(=O)OC)C(c2cc(Br)c(OC)c(OC)c2)C(C(=O)OC)=C1` belongs 166%. As for `O=C(O)c1cc(Cl)ccc1-c1ccc(/C=C/c2cc(C(F)(F)F)[nH]c(=O)n2)o1`, the inhibition is 70.6%. For the molecule `CCOc1ccc(C2C=C(c3ccc(F)cc3)Nc3ncnn32)cc1` (centres undefined), the inhibition came to 71.5%. In the case of `CCCCc1cc(=O)oc2cc(O)cc(O)c12`, the inhibition stood at 59.6%. With `N#Cc1c2ccc(O)cc2n2ccccc12` the figure was 70.6%; with `CC1C2=C(CC(C)(C)CC2=O)NC2=C1C(=O)CC(C)(C)C2`, 70.6%; with `N#C/C(=C(/O)CCCl)c1ccccn1`, 78%. For the molecule `COc1ccccc1C1CN(c2ccc(F)cc2F)N=C1c1cccs1` (centres undefined), the inhibition was determined as 60.6%. To `CN(CCC#N)c1ccc(/C=C(\C#N)c2ccccn2)cc1` belongs 69.1%. As to `CCc1cc(=O)oc2c(CN3CCN(C)CC3)c(O)c(Cl)cc12`, the inhibition amounted to 192%. With `CC(=O)c1cc2c(cc1NC(=O)Nc1cccc(Cl)c1)OCCO2`, the inhibition stood at 71.5%. For the molecule `CCN1CCS/C1=C\C=C\C1=[N+](CC)CCS1`, the inhibition amounted to 185%. To `CCN1/C(=C2\OC(=S)N(C)C2=O)Sc2ccccc21` belongs 63.8%; to `Oc1ccc(Nc2nc(N3CCCC3)c3ccccc3n2)cc1`, 96.5%; to `CC(C)CN(Cc1c(O)ccc2c3c(c(=O)oc12)CCC3)CC(C)C`, 76.8%. In the case of `COC(=O)C1=CN(C(C)C)C=C(C(=O)OC)C1c1cc(Br)c(OC)c(OC)c1`, the inhibition was determined as 71.5%.

Turning to `COCCCn1c(=N)c(C(=O)NCc2ccc3c(c2)OCO3)cc2c(=O)n3ccccc3nc21`, the inhibition came to 172%.

The term inhibition denotes the relative decrease from the control value, in per cent.

The values above are taken from PubChem BioAssay AID1434 (Sanford-Burnham Center for Chemical Genomics, 2008).
